Experimental data reported in the CheMixHub viscosity set.
Values joined by “and” are separate entries in the source; they are usually repeats but may differ in a detail not shown here. Identical values can stand only once. This continues a long series; more values of the same kind are listed elsewhere.

Legend:
[1] = xn = mol fraction of the nth substance listed

CC#N
viscosity [mPa·s]
Conditions | 293.15 K | 298.15 K | 303.15 K | 308.15 K | 313.15 K | 318.15 K | 323.15 K
101 kPa | – | 0.345 | 0.3322 | 0.3124 | – | – | –
101.3 kPa | 0.35 | 0.333 | – | 0.292 | 0.279 | 0.245 | 0.223

CCCCCC
viscosity
Conditions | 298.1 K | 298.15 K | 303.15 K | 308.15 K | 313 K | 313.15 K | 318.15 K | 323 K | 323.15 K
101 kPa | 0.316 mPa·s and 0.316 mPa·s | 0.2958 mPa·s and 0.308 mPa·s and 0.299 mPa·s | 0.294 mPa·s and 0.285 mPa·s and 0.3177 mPa·s | 0.281 mPa·s and 0.273 mPa·s | – | 0.26 mPa·s | 0.249 mPa·s | – | 0.238 mPa·s
101.33 kPa | – | – | – | – | 0.2649 mPa·s | – | – | 0.2418 mPa·s | –

CO
Conditions | viscosity
293.15 K, 101.3 kPa | 0.5811 mPa·s and 0.587 mPa·s
293.15 K, 101.33 kPa | 0.587 mPa·s and 0.5 mPa·s and 0.586 mPa·s
298 K, 100 kPa | 0.534 mPa·s
298.15 K, 101 kPa | 0.5702 mPa·s and 0.538 mPa·s and 0.5379 mPa·s
298.15 K, 101.3 kPa | 0.542 mPa·s and 0.5422 mPa·s and 0.554 mPa·s
303 K, 101 kPa | 0.501 mPa·s
303.15 K, 100 kPa | 0.505 mPa·s
303.15 K, 101.3 kPa | 0.5028 mPa·s and 0.511 mPa·s and 0.5 mPa·s
303.2 K, 101.33 kPa | 0.497 mPa·s
308.15 K, 101.3 kPa | 0.474 mPa·s and 0.4694 mPa·s and 0.46 mPa·s
308.15 K, 101.31 kPa | 0.469 mPa·s
311 K, 101.3 kPa | 0.4603 mPa·s
318 K, 101.3 kPa | 0.4345 mPa·s
318 K, 101.33 kPa | 0.4345 mPa·s
318.15 K, 101 kPa | 0.38 mPa·s and 0.4545 mPa·s and 0.4256 mPa·s
318.15 K, 101.3 kPa | 0.41 mPa·s
318.15 K, 101.31 kPa | 0.411 mPa·s
318.15 K, 101.33 kPa | 0.453 mPa·s
319 K, 101.3 kPa | 0.4116 mPa·s
323.1 K, 101.33 kPa | 0.3927 mPa·s
323.15 K, 101.3 kPa | 0.393 mPa·s and 0.4 mPa·s
323.15 K, 101.33 kPa | 0.43 mPa·s and 0.399 mPa·s and 0.416 mPa·s

CC#N + CC(C)O
[1], 313.15 K, 101.3 kPa
Conditions | viscosity [mPa·s]
x1 = 0.3855 | 0.5
x1 = 0.4939 | 0.427
x1 = 0.5942 | 0.389
x1 = 0.6871 | 0.348
x1 = 0.7736 | 0.317
x1 = 0.8541 | 0.296
x1 = 0.9295 | 0.294

CC#N + CCCCO
viscosity [mPa·s], [1], 101.3 kPa
Conditions | x1 = 0.1671 | x1 = 0.311 | x1 = 0.4362 | x1 = 0.5462 | x1 = 0.6436 | x1 = 0.7303 | x1 = 0.8082 | x1 = 0.8784 | x1 = 0.942
308.15 K | – | – | – | – | – | – | – | 0.347 | 0.314
313.15 K | 1.071 | 0.777 | 0.598 | 0.487 | 0.423 | 0.384 | 0.346 | 0.332 | 0.301

CC#N + CCCO
[1], 313.15 K, 101.3 kPa
Conditions | viscosity [mPa·s]
x1 = 0.3856 | 0.587
x1 = 0.4939 | 0.496
x1 = 0.5945 | 0.433
x1 = 0.6887 | 0.39
x1 = 0.7735 | 0.362
x1 = 0.8539 | 0.341
x1 = 0.9294 | 0.32

CC#N + CO
viscosity [mPa·s], [1]
Conditions | 298.15 K | 303.15 K | 308.15 K | 313.15 K | 318.15 K
101.3 kPa, x1 = 0.0798 | 0.504 | 0.47 | 0.44 | 0.416 | –
101.3 kPa, x1 = 0.1633 | 0.462 | 0.432 | 0.404 | 0.384 | –
101.3 kPa, x1 = 0.2507 | 0.424 | 0.398 | 0.373 | 0.354 | –
101.3 kPa, x1 = 0.3423 | 0.394 | 0.37 | 0.348 | 0.33 | –
101.3 kPa, x1 = 0.4384 | 0.373 | 0.351 | 0.33 | 0.314 | –
101.3 kPa, x1 = 0.5393 | 0.359 | 0.338 | 0.318 | 0.304 | –
101.3 kPa, x1 = 0.6455 | 0.349 | 0.329 | 0.312 | 0.297 | –
101.3 kPa, x1 = 0.7574 | 0.344 | 0.328 | 0.308 | 0.293 | –
101.3 kPa, x1 = 0.8754 | 0.343 | 0.326 | 0.307 | 0.292 | –
101.33 kPa, x1 = 0.5496 | – | – | – | – | 0.294
101.33 kPa, x1 = 0.5999 | – | – | – | – | 0.289
101.33 kPa, x1 = 0.6494 | – | – | – | – | 0.285
101.33 kPa, x1 = 0.6997 | – | – | – | – | 0.282
101.33 kPa, x1 = 0.745 | – | – | – | – | 0.28
101.33 kPa, x1 = 0.7995 | – | – | – | – | 0.28
101.33 kPa, x1 = 0.8496 | – | – | – | – | 0.281
101.33 kPa, x1 = 0.8998 | – | – | – | – | 0.281
101.33 kPa, x1 = 0.95 | – | – | – | – | 0.284

CC#N + O
[1], 323.15 K, 101 kPa
Conditions | viscosity [mPa·s]
x1 = 0.065 | 0.5847
x1 = 0.084 | 0.5863
x1 = 0.1498 | 0.5689
x1 = 0.2534 | 0.5199
x1 = 0.3831 | 0.4458
x1 = 0.5071 | 0.3857
x1 = 0.6075 | 0.355
x1 = 0.7039 | 0.3239
x1 = 0.8042 | 0.3012
x1 = 0.894 | 0.287
